Assay results reported in PubChem BioAssay AID485364 (National Center for Advancing Translational Sciences (NCATS), 2010).
The campaign covered roughly 360,000 compounds. About 11,000 (3.1%) were called active. Inconclusive means that the source gave no clear call. Such entries were picked first, then a sample of the others. Calls come from the whole dose curve; as a rule, active = well fitted inhibition curve with a large enough effect; inconclusive = small, poorly fitted or top-dose-only effect; inactive = no such curve, though single readings can be large or run the other way. No potency is given beside an inconclusive call; the fits are too rough.

molecular target: Schistosoma mansoni thioredoxin glutathione reductase (TGR) (UniProt Q962Y6); assay: qHTS Assay for the Inhibitors of Schistosoma Mansoni Peroxiredoxins; details: purified TGR, DTNB reduction, TNB absorbance 405 nm; series mostly up to 114 µM; note: nearly all actives have a fitted effect of over 60% in size
In short: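 TGR 20 nM + NADPH 100 uM (dispensed conc.), cpd preinc 15 min RT; start with NADPH (500 uM addition) then DTNB (15 mM addition). Kinetic TNB absorbance, 405 nm filter. Four-parameter Hill fit across titration.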
Potency is the fitted concentration of half-maximal effect; tags give direction and shape of the fitted curve.

SMILES	Potency
CCOc1cccc(N2C(=O)CC(n3cnc4ccccc43)C2=O)c1 (stereo not given)	inconclusive [inhibitor, partial curve]
O=C(CN1CCOCC1)N1CCN(c2nnc(-c3ccccc3)c3ccccc23)CC1	inconclusive [inhibitor, partial curve]
COc1ccc(NC(=O)CN2CCN(Cc3ccccc3)S2(=O)=O)c(OC)c1	inactive
CCC(CC)C(=O)Nc1cc([N+](=O)[O-])ccc1Cl	inactive
CCOC(=O)N1CCc2c(sc3c2c(=O)n(-c2ccccc2)c(=O)n3CC(=O)Nc2ccc(OC)cc2OC)C1	inactive
COc1ccc(/C=C2\Oc3cc(OCC(=O)N4CC(O)C[C@H]4C(=O)O)ccc3C2=O)c(OC)c1OC (stereo not given in full)	inconclusive [inhibitor, partial curve]
N#Cc1ccccc1CN1C(=O)c2ccccc2Sc2ccc(C(=O)OCc3ccco3)cc21	inactive
CCCS(=O)(=O)c1cn2cccc(N)c2c1S(=O)(=O)CCC	active: 22.4 µM
COc1cc2c(cc1NC(=O)C(C)N1CCN(S(=O)(=O)c3ccccc3[N+](=O)[O-])CC1)oc1ccccc12 (stereo not given)	inactive
CCOc1ccc(NC(=O)CCc2c(C)nc3nc(C)nn3c2C)cc1	inactive
CC(C)CNC(=S)NC(=O)c1ccc(Cl)cc1Cl	inconclusive [inhibitor, partial curve]
CCN(C)Cc1c(C(=O)N2CCc3ccccc3C2)nc2ccc(Cl)cn12	active: 35.5 µM
O=C(N/N=C/C(Cl)=C/c1ccc([N+](=O)[O-])cc1)C(=O)Nc1ccccc1C(=O)O	active: 14.1 µM
O=C(CCOc1ccccc1)N(Cc1cccnc1)c1nc2c(F)cc(F)cc2s1	active: 5.62 µM
Cc1cc(C(=O)COc2ccc(-c3nnco3)cc2)c(C)n1Cc1ccccc1	inconclusive [inhibitor, partial curve]
Cc1ccc(CN2CCN(CC(C)C)C(CCO)C2)s1 (stereo not given)	inconclusive [inhibitor, single point]
CC(=O)C1C(=O)C=C(c2ccco2)CC1c1ccccc1 (stereo not given)	inconclusive [inhibitor, partial curve]
c1ccc(-c2ncc3ccccn23)cc1	active: 39.8 µM
O=C(COC(=O)/C=C/c1ccco1)Nc1ccc(F)cc1Cl	active: 31.6 µM
Cn1c(=O)c(=O)n(C)c2cc(N3CCCC3)c(NC(=O)c3ccc(C(C)(C)C)cc3)cc21	inconclusive [inhibitor, partial curve]
COc1ccc(N(C(=O)Cn2nnc3ccccc32)C(C(=O)NCc2ccco2)c2ccc(C)o2)cc1 (stereo not given)	inconclusive [inhibitor, partial curve]
Cc1cc(C(=O)N2CCOCC2)ccc1[N+](=O)[O-]	inconclusive [inhibitor, full curve]
Cc1ccc(C(=O)O)cc1NC(=S)NC(=O)c1ccc(COc2ccccc2)cc1	inconclusive [inhibitor, partial curve, poor fit]

SMILES	Potency
Cc1cc(C(=O)N/N=C/c2ccc(-c3ccc([N+](=O)[O-])cc3C)o2)n[nH]1	inconclusive [inhibitor, partial curve]
CCc1cccc(CC)c1-n1c(SCn2nnc3ccccc3c2=O)nnc1-c1cccnc1	inactive
COc1ccc(CSc2nc3nc(C)cc(C)n3n2)cc1F	inconclusive [inhibitor, partial curve]
O=C(O)CC12CC3CC(C1)CC(n1ncc(NCc4ccco4)c(Cl)c1=O)(C3)C2	active: 11.2 µM
Oc1c(CN2CCN(c3ccccc3)CC2)cc(Br)c2cccnc12	active: 39.8 µM
Cc1ccccc1C1C(C#N)=C2N=C(N)c3c(sc4c3CCCCC4)N2C2=C1C(=O)CC(C)(C)C2 (stereo not given)	inactive
CCCCCCc1cc2cc(C(N)=O)c(=N)oc2cc1O	inconclusive [inhibitor, partial curve]
CC(C)CCOc1ccc(Oc2nc(N(C)C)nc(N(C)C)n2)nn1	inactive
O=C(CCSCCC(=O)NCc1ccco1)NCc1ccco1	inconclusive [inhibitor, partial curve]
Cc1[nH]c2ccccc2c1/C=N/NS(=O)(=O)c1ccccc1	inconclusive [inhibitor, partial curve]
COc1ccc(C(=O)CCN2CCN(c3ccccc3F)CC2)cc1	active: 0.794 µM
O=C(C1=C[C@@H](c2ccc(Br)cc2)C[C@@H](OCCCCO)O1)N1CCN(Cc2ccccc2)CC1	active: 20 µM
CN(C)c1ccc(CN(C(=O)c2cccs2)C2CCS(=O)(=O)C2)cc1 (stereo not given)	inactive
COc1cc2cc(CCOC(=O)c3ccc(C(F)(F)F)cc3)oc(=O)c2cc1OC	inconclusive [inhibitor, partial curve]
O=C(CN(c1ccc(Cl)cc1)S(=O)(=O)c1ccccc1)N/N=C/c1ccco1	inconclusive [inhibitor, full curve, poor fit]
CCN(CC)S(=O)(=O)c1cccc(-c2nnc(SCc3ncc(-c4ccccc4)o3)n2C)c1	inconclusive [inhibitor, partial curve]
CCCN(C(=O)Cc1c(C(=O)O)[nH]c2ccc(Cl)cc12)c1ccc(OCC)cc1	inconclusive [inhibitor, single point]
Cc1cccc(CS(=O)(=O)Cc2ccc(C(=O)NC(C)c3ccccc3)o2)c1 (stereo not given)	inconclusive [inhibitor, partial curve]
COc1ccc(CCN(C)C2CCCN(S(C)(=O)=O)C2)cc1OC (stereo not given)	inconclusive [inhibitor, full curve, poor fit]
O=C(OCC(=O)N1c2ccccc2Sc2ccccc21)C1CC(=O)N(Cc2ccco2)C1 (stereo not given)	active: 28.2 µM
CC12CCC(C(=O)Nc3ccc4c(c3)OCCO4)(OC1=O)C2(C)C (stereo not given)	inactive
COC(=O)C1=Nc2ccccc2/C1=C\c1c(O)n(-c2cc(OC)ccc2OC)c(=O)[nH]c1=O	inconclusive [inhibitor, partial curve, poor fit]
